Laboratory results reported in patent US9193768B2, “Peptide for inhibition of binding between angiopoietin-2 and integrin and use thereof” (Samsung Electronics Co., Ltd., priority 2012, dated 2015).

Legend:
U87MG cells = assay: Ang2 dependent adhesion of U87MG cells to Ang2-coated wells (CellTiter-Glo luminescence); assay type: cell-based, human
Experimental: A 96-well plate was treated with 100 μl of a solution obtained by diluting Ang2 (R&D systems; 623-AN-025/CF) in a phosphate buffered saline (PBS) at a concentration of 10 μg/ml and incubated at 4° C. for 16 hours so that the wells were coated with Ang2. Thereafter, the Ang2-coated 96 wells were washed twice with PBS, treated with 200 μl of PBS containing 2% (v/v) bovine serum albumin (BSA) and then incubated at a room temperature for 2 hours for blocking. For a negative control, wells that were blocked without Ang2 coating (i.e., treated with BSA only) were prepared. […]
Then, the plate was washed 4 times with serum-free media that was warmed to 37° C. to remove cells that were not adhered. The adhesion level of cells was quantified by adding 200 μl of CellTiter-Glo reagent (Promega) diluted in IMDM at 1:1 and then, measuring luminescence at EnVision® Multilabel Reader (PerkinElmer) after 10 min.
When Ang2-coated plates were treated with U87MG cells in accordance with the same methods as in Example 1.1, they were co-treated with one of the 41 peptides derived from Ang2 set forth in Table 2 to investigate the inhibition effects of the peptides against the adhesion of U87MG cells (see FIG. 8). […] That is, after the addition of 200 μl of CellTiter-Glo reagent (Promega) diluted in IMDM at 1:1, their luminescence was measured at EnVision® Multilabel Reader (PerkinElmer) after 10 min. […]

integrin (αVβ3) and Ang2 = target: T1, integrin (αVβ3) and Ang2 (Homo sapiens, UniProt P05106+P06756); assay: ELISA: inhibition of FLAG-Ang2 binding to coated integrin by C-body; details: C-body 0, 0.8 and 4 μg/ml; FIG. 22
T1 construct: purchased R&D systems
T1 sequence (P06756 31-889 limits assumed): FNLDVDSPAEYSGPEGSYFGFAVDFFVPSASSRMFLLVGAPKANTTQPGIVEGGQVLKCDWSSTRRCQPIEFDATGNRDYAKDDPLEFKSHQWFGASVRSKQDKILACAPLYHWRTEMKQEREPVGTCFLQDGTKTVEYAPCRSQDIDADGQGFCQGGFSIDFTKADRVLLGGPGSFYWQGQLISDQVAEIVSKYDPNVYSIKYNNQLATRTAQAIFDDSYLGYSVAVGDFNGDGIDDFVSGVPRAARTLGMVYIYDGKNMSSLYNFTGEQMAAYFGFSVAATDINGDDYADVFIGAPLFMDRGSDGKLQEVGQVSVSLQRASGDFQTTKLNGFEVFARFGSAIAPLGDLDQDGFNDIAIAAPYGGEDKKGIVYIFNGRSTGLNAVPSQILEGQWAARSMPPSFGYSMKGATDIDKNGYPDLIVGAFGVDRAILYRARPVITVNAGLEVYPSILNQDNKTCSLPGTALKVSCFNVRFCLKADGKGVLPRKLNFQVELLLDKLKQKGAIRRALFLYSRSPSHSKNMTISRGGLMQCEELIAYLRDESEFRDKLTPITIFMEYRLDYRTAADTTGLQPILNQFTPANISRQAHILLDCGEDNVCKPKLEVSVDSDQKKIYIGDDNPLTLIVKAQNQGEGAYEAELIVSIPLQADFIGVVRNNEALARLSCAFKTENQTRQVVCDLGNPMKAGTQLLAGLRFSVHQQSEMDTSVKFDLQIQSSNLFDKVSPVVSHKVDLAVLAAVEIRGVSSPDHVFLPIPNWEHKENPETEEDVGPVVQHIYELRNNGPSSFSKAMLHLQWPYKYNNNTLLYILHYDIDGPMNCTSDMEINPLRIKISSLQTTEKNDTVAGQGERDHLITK
T1 sequence (P06756 891-992 partner limits assumed): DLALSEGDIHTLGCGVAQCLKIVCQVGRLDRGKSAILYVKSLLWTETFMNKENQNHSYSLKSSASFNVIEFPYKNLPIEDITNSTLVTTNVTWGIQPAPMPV
T1 sequence (P05106 27-718 limits assumed): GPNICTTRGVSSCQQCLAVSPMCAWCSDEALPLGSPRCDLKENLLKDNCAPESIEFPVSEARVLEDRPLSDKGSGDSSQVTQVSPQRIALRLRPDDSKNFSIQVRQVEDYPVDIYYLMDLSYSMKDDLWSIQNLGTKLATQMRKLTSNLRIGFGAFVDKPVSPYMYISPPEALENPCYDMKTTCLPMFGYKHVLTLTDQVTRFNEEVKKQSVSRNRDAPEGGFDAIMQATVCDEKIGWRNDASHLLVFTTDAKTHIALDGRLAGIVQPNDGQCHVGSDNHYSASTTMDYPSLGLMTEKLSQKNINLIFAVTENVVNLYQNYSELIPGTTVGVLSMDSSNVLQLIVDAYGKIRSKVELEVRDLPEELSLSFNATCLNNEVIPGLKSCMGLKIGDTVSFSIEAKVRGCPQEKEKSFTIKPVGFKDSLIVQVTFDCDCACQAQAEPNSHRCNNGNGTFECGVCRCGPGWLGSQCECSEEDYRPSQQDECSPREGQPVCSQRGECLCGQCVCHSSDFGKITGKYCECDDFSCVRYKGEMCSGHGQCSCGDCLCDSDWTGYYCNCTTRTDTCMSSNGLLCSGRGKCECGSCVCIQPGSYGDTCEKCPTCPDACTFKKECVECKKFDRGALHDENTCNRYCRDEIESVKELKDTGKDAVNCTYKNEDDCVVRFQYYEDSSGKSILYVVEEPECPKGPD
Experimental: After an ELISA plate was coated with diluents obtained by diluting 3 kinds of integrin proteins (alpha5beta1 (α5β1; α5: NCBI Accession No. P08648, β1: NCBI Accession No. P05556), alphaVbeta1 (αVβ1; αV: NCBI Accession No. P06756, β1: NCBI Accession No. P05556), and alphaVbeta3 (αVβ3; αV: NCBI Accession No. P06756, β3: NCBI Accession No. P05106); R&D systems)) in PBS at a concentration of 5 μg/ml (18 hours, 4° C.), it was blocked with 1% (v/v) BSA at a room temperature for 2 hours. Thereafter, it was treated with Ang2 protein having FLAG sequences (DYKDDDDK, Sigma) tagged at its N-terminal (FLAG-Ang2, 0.1 ml of Ang2 protein solution diluted in PBS at a concentration of 10 μg/ml), incubated at a room temperature for 2 hours, and washed 5 times with PBS-t (0.1% (v/v) triton X-100 in PBS). Then, it was followed by the addition of anti-FLAG antibody (Sigma) conjugated with horse radish peroxidase (HRP) and washed 5 times with PBS-t. Binding between Ang2 and 3 kinds of the integrins was verified indirectly by measuring the quantity of anti-FLAG antibody remaining in the ELISA plate through color development reaction using TMB (3,3,5,5-tetramethylbenzidine) as a substrate of HRP. As a negative control, one plate which was blocked without Ang2 protein treatment (BSA treatment only) was used. […]

Ang2-Tie2 binding = target: T2, Ang2-Tie2 binding (Homo sapiens, UniProt Q02763); assay: ELISA: Ang2-Tie2 binding with or without C-body; details: C-body 5 μg/ml, FLAG-Ang2 5 μg/ml; FIG. 19
T2 construct: purchased R&D systems
T2 sequence (Q02763 23-745 limits assumed): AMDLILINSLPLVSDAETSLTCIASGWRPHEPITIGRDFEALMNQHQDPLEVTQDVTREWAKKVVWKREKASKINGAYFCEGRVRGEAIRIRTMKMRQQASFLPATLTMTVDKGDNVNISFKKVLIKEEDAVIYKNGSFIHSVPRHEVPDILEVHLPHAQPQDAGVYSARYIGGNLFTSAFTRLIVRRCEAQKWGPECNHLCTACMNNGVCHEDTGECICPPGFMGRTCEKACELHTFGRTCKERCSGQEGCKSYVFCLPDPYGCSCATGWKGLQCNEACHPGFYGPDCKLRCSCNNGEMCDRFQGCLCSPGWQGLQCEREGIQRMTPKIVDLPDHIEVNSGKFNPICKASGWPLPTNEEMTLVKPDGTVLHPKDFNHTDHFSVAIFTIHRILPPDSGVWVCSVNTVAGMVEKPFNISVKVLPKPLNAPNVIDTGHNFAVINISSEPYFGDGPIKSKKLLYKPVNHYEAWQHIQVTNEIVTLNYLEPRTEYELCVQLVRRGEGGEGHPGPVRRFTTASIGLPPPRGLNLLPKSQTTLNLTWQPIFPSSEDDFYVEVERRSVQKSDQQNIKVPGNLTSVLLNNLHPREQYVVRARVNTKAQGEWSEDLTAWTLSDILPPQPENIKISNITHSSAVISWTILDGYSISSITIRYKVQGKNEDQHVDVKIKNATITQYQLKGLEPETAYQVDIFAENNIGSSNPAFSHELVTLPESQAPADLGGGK
Experimental: As in Example 6, while Tie2-coated ELISA plates were being incubated after the addition of 100 μl of FLAG-Ang2 (5 μg/ml), they were treated or not treated with C-body at a concentration of 5 μg/ml to examine any changes in Ang2-Tie2 binding according to the presence or absence of C-body.

integrin (α5β1) = target: T3, integrin (α5β1) (Homo sapiens, UniProt P05556+P08648); assay: Flow cytometry: FLAG-Ang2 binding to integrin on the membrane of transfected CHO cells; assay type: cell-based; details: C-body 10 μg/ml along with FLAG-Ang2, FIG. 17
T3 construct: myc-His (vector pcDNA3.1(+)/myc-His A) (C); host or cells: CHO cells
T3 sequence (P08648 42-894 limits assumed): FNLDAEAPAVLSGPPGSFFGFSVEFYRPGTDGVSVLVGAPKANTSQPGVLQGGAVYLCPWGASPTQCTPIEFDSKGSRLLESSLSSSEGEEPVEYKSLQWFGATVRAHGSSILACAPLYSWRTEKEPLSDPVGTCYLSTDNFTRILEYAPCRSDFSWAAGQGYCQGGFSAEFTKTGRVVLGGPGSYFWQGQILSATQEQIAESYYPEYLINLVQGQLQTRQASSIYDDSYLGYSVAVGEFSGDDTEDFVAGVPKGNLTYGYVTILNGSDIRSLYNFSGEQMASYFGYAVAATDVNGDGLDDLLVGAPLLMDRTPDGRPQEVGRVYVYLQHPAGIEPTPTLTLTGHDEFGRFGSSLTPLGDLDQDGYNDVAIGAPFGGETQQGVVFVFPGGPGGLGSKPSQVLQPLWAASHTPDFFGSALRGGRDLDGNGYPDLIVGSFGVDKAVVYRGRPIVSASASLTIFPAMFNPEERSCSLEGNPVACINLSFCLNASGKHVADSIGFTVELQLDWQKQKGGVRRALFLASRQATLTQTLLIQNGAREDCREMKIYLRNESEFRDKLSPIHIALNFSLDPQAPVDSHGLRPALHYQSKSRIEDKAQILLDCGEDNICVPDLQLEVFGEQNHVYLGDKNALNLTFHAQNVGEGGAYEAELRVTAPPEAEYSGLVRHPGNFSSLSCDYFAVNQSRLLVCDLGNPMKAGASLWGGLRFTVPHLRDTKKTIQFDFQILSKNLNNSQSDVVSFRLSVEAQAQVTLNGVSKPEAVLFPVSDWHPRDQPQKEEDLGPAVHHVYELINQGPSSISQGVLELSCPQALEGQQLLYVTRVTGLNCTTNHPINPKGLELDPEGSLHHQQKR
T3 sequence (P08648 895-1049 partner limits assumed): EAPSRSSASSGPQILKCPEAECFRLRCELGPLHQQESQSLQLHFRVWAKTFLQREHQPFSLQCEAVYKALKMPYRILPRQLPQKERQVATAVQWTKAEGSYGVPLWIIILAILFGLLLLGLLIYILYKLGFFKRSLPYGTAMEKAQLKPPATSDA
T3 sequence (P05556 21-798): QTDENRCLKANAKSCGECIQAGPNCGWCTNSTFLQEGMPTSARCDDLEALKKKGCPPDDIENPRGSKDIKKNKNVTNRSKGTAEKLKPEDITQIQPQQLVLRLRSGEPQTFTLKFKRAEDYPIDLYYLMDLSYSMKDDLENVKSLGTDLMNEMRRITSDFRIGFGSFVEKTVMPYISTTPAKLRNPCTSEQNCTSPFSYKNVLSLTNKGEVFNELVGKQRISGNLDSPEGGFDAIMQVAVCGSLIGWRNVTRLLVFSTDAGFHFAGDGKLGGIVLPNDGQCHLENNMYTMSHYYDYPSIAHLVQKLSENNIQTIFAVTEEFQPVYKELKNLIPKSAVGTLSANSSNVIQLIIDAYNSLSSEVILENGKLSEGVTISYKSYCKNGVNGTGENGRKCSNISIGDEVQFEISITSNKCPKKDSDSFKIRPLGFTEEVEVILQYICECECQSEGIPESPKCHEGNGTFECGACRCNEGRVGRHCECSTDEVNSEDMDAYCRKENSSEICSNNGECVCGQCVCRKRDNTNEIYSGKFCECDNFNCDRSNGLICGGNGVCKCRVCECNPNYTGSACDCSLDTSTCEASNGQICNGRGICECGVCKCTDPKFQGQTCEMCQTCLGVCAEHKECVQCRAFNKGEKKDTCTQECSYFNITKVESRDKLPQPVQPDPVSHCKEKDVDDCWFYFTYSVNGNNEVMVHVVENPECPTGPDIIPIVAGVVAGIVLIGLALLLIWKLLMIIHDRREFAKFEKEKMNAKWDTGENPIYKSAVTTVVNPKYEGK
Source text: cDNA pairs of each integrin (α5β1, αVβ1, and αVβ3) and cDNA (pTRACER™-CMV2, Invitrogen) encoding green fluorescent protein (GFP) as a transfection marker were transfected into Chinese Hamster Ovary (CHO) cell line (Korea Research Institute of Bioscience and Biotechnology, Biological Resource Center) using lipofectamine 2000 reagent (Invitrogen) pursuant to the manufacturer's recommended experimental procedures. Each cDNA (integrin α5, αV, β1, β3 4 kinds) used for transfection was purchased from Origene, with the corresponding open reading frame amplified using polymerase chain reaction, and cloned into pcDNA3.1(+)/myc-His A (invitrogen).
The transfected cells were cultured under normal cell cultivation conditions (IMDM media containing 10% fetal bovine serum and penicillin/streptomycin at 10%, CO2 incubator at 37° C.) for 24 hours.
Then, the cells were detached according to Example 1.1 above, re-suspended in serum-free media (IMDM) at about 2×10^7 cells/ml, and incubated at 4° C. for 1 hour after 45 μl of the cell solution was mixed with 5 ml of FLAG-Ang2 diluted in PBS at a concentration of 200 μg/ml. After the cells were fixed using 3% (v/v) formaldehyde and washed with IMDM, they were dyed with anti-FLAG antibody (Sigma) conjugated with R-phycoerythrin and then analyzed using flow cytometry. […]

[1] = test system: FAK (focal adhesion kinase); assay: FAK phosphorylation in U87MG cells on coated wells (western blotting); assay type: cell-based, human; details: C-body 5 μg/ml
Experimental: In accordance with Example 2 above, 6 wells were coated with 100 μg/ml of poly-L-lysine, 10 μg/ml of Ang2, or 10 μg/ml of fibronectin, respectively, and 2 ml of a U87MG cell suspension (about 3×10^5 cells/ml) was added to the surfaces blocked with 2% (v/v) BSA to perform a cell adhesion test. When the cells were added, 5 μg/ml of C-body was or was not treated with regard to each coating condition. After the induction of cell adhesion in a CO2 incubator of 37° C. for 2 hours, the adhered cells and non-adhered cells were collected and they subjected to western blotting using an antibody which recognizes only FAK phosphorylated at tyrosine of No. 397 (Life Technologies) or an antibody which recognizes only FAK phosphorylated at serine of No. 910 (Life Technologies) to investigate the phosphorylation level of FAK.

[2] = test system: lymphatic endothelial cells (LEC); assay: Migration of lymphatic endothelial cells induced by Ang2 (xCelligence, CIM-plate 16); assay type: cell-based; details: C-body 10 μg/ml with 2 μg/ml Ang2; FIG. 20, FIG. 21 (24 hours)
Experimental: To each well of the lower chambers of CIM-plate 16 (GE healthcare) was added EBM media (Lonza) to which 2% (v/v) fetal bovine serum (FBS) was added, and 2 μg/ml of Ang2 along with either 10 μg/ml of C-body produced in Example 8, or μg/ml of Fc, a negative control, (human IgG1). The plates were assembled with the upper chambers coated with fibronectin. 40,000 lymphatic endothelial cells (LEC; Lonza) resuspended in serum-free media were added to each well, which was then equipped to xCelligence Realtime cell analyzer (GE Healthcare), and the impedance between the upper chambers and lower chambers was measured and marked for 30 hours to quantify cell migration.
The control set forth in FIG. 20 and FIG. 21 refers to a negative control with no treatment given.

[3] = poly-L-lysine, Ang2 or fibronectin coating, FIG. 18

B1: C-body: peptibody: four-fold Peptide 15/Gly-Gly-Gly-Ser linker repeats fused at N-terminal and C-terminal of human IgG1 Fc fragment, dimer (protein)
chain: EYWLGNEFVSQLTNQGGGSEYWLGNEFVSQLTNQGGGSEYWLGNEFVSQLTNQGGGSEYWLGNEFVSQLTNQGGGS[omitted - human IgG1 Fc]GGGSEYWLGNEFVSQLTNQGGGSEYWLGNEFVSQLTNQGGGSEYWLGNEFVSQLTNQGGGSEYWLGNEFVSQLTNQ
In the case of B1, the “inhibition of U87MG cell adhesion” value (U87MG cells; C-body 20 μg/ml or 5 μg/ml, compared with no treatment (0 μg/ml), FIG. 16) is reported as “remarkably inhibited cell adhesion”, the “cell adhesion inhibition effects” value (U87MG cells; C-body at a low concentration (e.g., 5 μg/ml)) is reported as “excellent cell adhesion inhibition effects” and the “inhibition of binding between integrin (αVβ3) and Ang2” value (integrin (αVβ3) and Ang2) is reported as “inhibited binding between integrin (αVβ3) and Ang2 in a concentration-dependent manner”. For the same molecule, the “inhibition effects on Tie2-Ang2 binding” value (Ang2-Tie2 binding) was “did not exhibit inhibition effects”, the “inhibition of binding between Ang2 and integrin (α5β1) on cell surface” value (integrin (α5β1)) was “remarkably inhibited binding between Ang2 and integrin” and the “phosphorylation of tyrosine of No. 397 of FAK” value ([1]; Ang2 coating condition, FIG. 18) was “highly reduced”. The “inhibition of the binding of fibronectin and integrin” value ([1]; concluded from FAK Tyr397 phosphorylation under fibronectin coating) was “does not inhibit”, the “expression levels of overall FAK” value [1, 3] was “little difference” and the “phosphorylation of serine of No. 910 of FAK” value [1, 3] was “little difference”. For the same molecule, the “migration of lymphatic endothelial cells” value [2] was “remarkably reduced to the control level”.
